Measurements published in PubChem BioAssay AID624417 (National Center for Advancing Translational Sciences (NCATS), 2012).
Out of some 410,000 compounds screened, about 6,400 (1.6%) were called active. Inconclusive means that the source gave no clear call. Such entries were picked first, then a sample of the others. The call rests on the fitted dose curve; in most records, active means well fitted inhibition curve with a large enough effect; inconclusive means small, poorly fitted or top-dose-only effect; inactive means no such curve, though single readings can be large or run the other way. No potency is given beside an inconclusive call; the fits are too rough.

These compounds were tested against Glucagon-like peptide 1 receptor (Homo sapiens) (UniProt P43220) (assay: qHTS of GLP-1 Receptor Inverse Agonists (Inhibition Mode)). Conditions: HEK293 GLP-1R CRE-luciferase, luminescence, 24 h, GLP-1R form is constitutively active; activity change, negative = inhibition: at 38.3 µM (top of the series) unless noted.
Outline: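 Inverse agonism was detected as reduced cAMP-driven luciferase luminescence after 24 h compound treatment. The cells were HEK293 clones expressing constitutively active human GLP-1R with the reporter. Reporter-only and GPR119 cell lines served as counterscreen controls.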
Further: nearly all actives have a fitted effect of over 55% in size.
On the % scale 0 is the no-effect control and ±100 the full control effect; potency means the concentration at half of the fitted maximal effect; tags describe the fitted curve by direction and shape.

Sequence of UniProt P43220 (P43220 whole entry, looked up): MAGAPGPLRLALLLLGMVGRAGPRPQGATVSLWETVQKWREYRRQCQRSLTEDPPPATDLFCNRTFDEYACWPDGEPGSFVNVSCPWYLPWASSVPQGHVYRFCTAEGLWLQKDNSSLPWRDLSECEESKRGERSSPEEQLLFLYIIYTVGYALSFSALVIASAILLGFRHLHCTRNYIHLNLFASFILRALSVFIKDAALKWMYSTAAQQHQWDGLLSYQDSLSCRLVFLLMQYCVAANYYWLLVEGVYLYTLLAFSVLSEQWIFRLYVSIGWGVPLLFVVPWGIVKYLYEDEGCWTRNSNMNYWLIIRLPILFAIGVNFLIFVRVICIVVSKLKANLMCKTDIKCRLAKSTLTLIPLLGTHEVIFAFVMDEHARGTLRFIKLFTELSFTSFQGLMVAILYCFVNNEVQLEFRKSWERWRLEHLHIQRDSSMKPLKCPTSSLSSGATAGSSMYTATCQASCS

Compound | Potency | activity change, negative = inhibition
O=C(NCc1ccco1)Nc1cccc(-c2ccccc2)c1 | inconclusive [inhibitor, partial curve, poor fit] | 
COc1cccc(CNCCCSc2nnnn2C)c1 |  | inactive: 3.47%
Cc1ccc(NC(=O)c2cccc(S(=O)(=O)NCc3ccccc3)c2)nc1 | inconclusive [inhibitor, partial curve, poor fit] | 
Cc1oc2ncn(C)c(=O)c2c1C(=O)N1CCN(c2ccc(Cl)cc2)CC1 |  | inactive: 14.4%
COc1ccc(C)cc1S(=O)(=O)N(CC(=O)Nc1cccc([N+](=O)[O-])c1)c1ccc(C)cc1 | inconclusive [inhibitor, partial curve, poor fit] | 
CCOC(=O)[C@]12CCC=C1N(Cc1ccccc1)C(=O)[C@H](CC(=O)NCC13CC4CC(CC(C4)C1)C3)C2 | inconclusive [inhibitor, single point] | 
CCCn1nnnc1NCc1ccc(Cl)cc1Cl | inconclusive [inhibitor, full curve, poor fit] | 
CN(C)CCCNC(=O)c1cc(C(=O)Cc2ccc(Cl)cc2)c[nH]1 | inconclusive [inhibitor, partial curve, poor fit] | 
CCOc1cccc(CC(=O)N2CCc3c([nH]c4ccccc34)C2c2ccc(OC)cc2)c1OCC (stereo not given) | inconclusive [inhibitor, partial curve, poor fit] | 
COc1ccc(C2C(C(=O)Nc3cc(OC)c(OC)c(OC)c3)c3ccccc3C(=O)N2C)cc1 (stereo not given) | inconclusive [inhibitor, full curve, poor fit] | 
CCOC(=O)C1(C#N)C(=O)CSC1=Nc1ccccc1Cl (stereo not given) |  | inactive: 0.273%
COCCNC(=O)c1cnn2c(C(F)F)cc(-c3ccc(C)cc3)nc12 |  | inactive: 19.2%
C/C(=N\NC(=S)NCc1ccccc1)c1ccccc1F | inconclusive [inhibitor, single point] | 
CCOC(=O)CNC(c1ccccc1)c1cc(Br)ccc1NC(=O)OCC (stereo not given) | inconclusive [inhibitor, partial curve, poor fit] | 
CCCC(C(=O)Nc1ccc(S(=O)(=O)N2CCOCC2)cc1)c1ccccc1 (stereo not given) | inconclusive [inhibitor, partial curve, poor fit] | 
CCN1c2ccccc2-c2nc3ccccc3n2C1c1ccco1 (stereo not given) | inconclusive [inhibitor, partial curve, poor fit] | 
COc1ccccc1NC(=S)NNC(=O)c1ccccc1 |  | inactive: 8.25%
O=C(Nc1c(C(=O)N2CCC(N3CCCCC3)CC2)oc2ccccc12)c1ccc(F)cc1 | inconclusive [inhibitor, single point] | 
Cc1cccc(Oc2ccccc2NC(=O)C2=COCCO2)c1 | inconclusive [inhibitor, single point] | 
Cc1ccc(-n2c(SCc3nc(-c4ccc(Cl)cc4)no3)nnc2-c2ccncc2)cc1 | inconclusive [inhibitor, partial curve, poor fit] | 

Compound | Potency | activity change, negative = inhibition
COc1ccc(-c2nc(CSCC(=O)N3CCN(c4cccc(C)c4)C(C)C3)c(C)o2)cc1OC (stereo not given) | inconclusive [inhibitor, single point] | 
O=C1CC(c2ccccc2Cl)CC(O)=C1C=Nc1ccccc1 (stereo not given) | inconclusive [inhibitor, full curve, poor fit] | 
CC1(C(=O)Nc2cnc3ccccc3c2)CCN1Cc1ccccc1OC(F)F (stereo not given) | inconclusive [inhibitor, partial curve, poor fit] | 
O=C(N/N=C/C1CC=CCC1)c1cc(Br)ccc1O (stereo not given) |  | inactive: 6.99%
COc1ccccc1-c1oc2ccccc2c1-c1ccc2c(c1)OCO2 | inconclusive [inhibitor, partial curve, poor fit] | 
CCN(CC(=O)Nc1ccc(NC(C)=O)cc1)C(=O)/C=C/c1cn(-c2ccccc2)nc1-c1ccc(C)cc1 | inconclusive [inhibitor, single point] | 
Cc1ccc(NC(=O)CC(O)(C(F)(F)F)C(F)(F)F)c(Br)c1 | inconclusive [inhibitor, partial curve, poor fit] | 
Cc1ccsc1/C=N/Nc1ccc(C(=O)O)cc1 | inconclusive [inhibitor, partial curve, poor fit] | 
CCOc1ccc(C(c2c(NC(=O)c3ccccc3)sc(C)c2C)N2CCN(CCO)CC2)cc1 (stereo not given) | inconclusive [inhibitor, partial curve, poor fit] | 
CC(C)c1ccc(Nc2ncccc2C(=O)O)cc1 | inconclusive [inhibitor, partial curve, poor fit] | 
COc1ccccc1N1CCN(C(c2ccccn2)c2nnnn2C2CCCCC2)CC1 (stereo not given) |  | inactive: -18.9%
COc1ccc(C(=O)/C=C2/C(=O)Nc3ccccc32)c(OC)c1 | inconclusive [inhibitor, partial curve, poor fit] | 
O=C(CCC(=O)N1CCN(S(=O)(=O)c2ccc(Cl)cc2)CC1)NCc1cccc(C(F)(F)F)c1 | inconclusive [inhibitor, partial curve] | 
CCCCN(CCCNC(=O)c1ccc(CS(=O)(=O)c2ccc(OC)cc2)o1)Cc1ccccc1 | inconclusive [inhibitor, single point] | 
COc1ccc(Cn2cc(CN3CC(N4CCN(CCN(C)C)CC4)CS3(=O)=O)nn2)cc1 (stereo not given) |  | inactive: 26.4%
CC1CCN(S(=O)(=O)c2ccc3c(ccn3CCC(=O)N3CCCCC3)c2)CC1 | inconclusive [inhibitor, single point] | 
Cc1nn(C)cc1/C=N/NC(=O)CSc1ccccn1 |  | inactive: 5.02%
Cc1ccc(NC(=O)C(C)OC(=O)/C=C/c2ccccc2)cc1S(=O)(=O)N1CCOCC1 (stereo not given) | inconclusive [inhibitor, single point] | 
COc1cccc(CN(C)C(=O)C23CC4CC(CC(C4)C2)C3)c1 | inconclusive [inhibitor, single point] | 
Cc1cscc1-c1cc2nc(NCCCN(C)C)n(C)c(=O)c2s1 | inconclusive [inhibitor, single point] | 
